To fix the notation:
T1: RBFOX1 RRM (Homo sapiens, UniProt Q9NWB1 109-208)
T1 sequence: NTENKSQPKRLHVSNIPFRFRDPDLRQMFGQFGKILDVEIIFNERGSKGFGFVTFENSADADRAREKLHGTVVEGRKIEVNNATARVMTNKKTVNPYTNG

B1: UAUUUCC (DNA:RNA)
RNA: GGGAGACCGGAAUUCAGAUUGUCCUAUUUCCUUAAAUCCCGUCGUAGCCACCA
DNA 1: CAATCTGAATTCCGGTCTCCC
DNA 2: TGGTGGCTACGACGGGATT
B2: GUGGGGA (DNA:RNA)
RNA: GGGAGACCGGAAUUCAGAUUGUCCGUGGGGAUUAAAUCCCGUCGUAGCCACCA
DNA 1: CAATCTGAATTCCGGTCTCCC
DNA 2: TGGTGGCTACGACGGGATT
B3: AAAGACU (DNA:RNA)
RNA: B1 RNA with U25A, U27A, U28G, U29A, C31U
DNA 1: CAATCTGAATTCCGGTCTCCC
DNA 2: TGGTGGCTACGACGGGATT
B4: CAACCGU (DNA:RNA)
RNA: B2 RNA with G25C, U26A, G27A, G28C, G29C, A31U
DNA 1: CAATCTGAATTCCGGTCTCCC
DNA 2: TGGTGGCTACGACGGGATT
B5: CGUCAAU (DNA:RNA)
RNA: B1 RNA with U25C, A26G, U28C, U29A, C30A, C31U
DNA 1: CAATCTGAATTCCGGTCTCCC
DNA 2: TGGTGGCTACGACGGGATT
B6: CUAUGCA (DNA:RNA)
RNA: B2 RNA with G25C, G27A, G28U, G30C
DNA 1: CAATCTGAATTCCGGTCTCCC
DNA 2: TGGTGGCTACGACGGGATT
B7: CGCCUGG (DNA:RNA)
RNA: B2 RNA with G25C, U26G, G27C, G28C, G29U, A31G
DNA 1: CAATCTGAATTCCGGTCTCCC
DNA 2: TGGTGGCTACGACGGGATT
B8: AGUUGAA (DNA:RNA)
RNA: B2 RNA with G25A, U26G, G27U, G28U, G30A
DNA 1: CAATCTGAATTCCGGTCTCCC
DNA 2: TGGTGGCTACGACGGGATT
B9: ACAACCG (DNA:RNA)
RNA: B1 RNA with U25A, A26C, U27A, U28A, U29C, C31G
DNA 1: CAATCTGAATTCCGGTCTCCC
DNA 2: TGGTGGCTACGACGGGATT
B10: UGGAAAU (DNA:RNA)
RNA: B2 RNA with G25U, U26G, G28A, G29A, G30A, A31U
DNA 1: CAATCTGAATTCCGGTCTCCC
DNA 2: TGGTGGCTACGACGGGATT
B11: UCCGUAC (DNA:RNA)
RNA: B1 RNA with A26C, U27C, U28G, C30A
DNA 1: CAATCTGAATTCCGGTCTCCC
DNA 2: TGGTGGCTACGACGGGATT
B12: CAGAGUA (DNA:RNA)
RNA: B2 RNA with G25C, U26A, G28A, G30U
DNA 1: CAATCTGAATTCCGGTCTCCC
DNA 2: TGGTGGCTACGACGGGATT
B13: UUUGGUC (DNA:RNA)
RNA: B2 RNA with G25U, G27U, G30U, A31C
DNA 1: CAATCTGAATTCCGGTCTCCC
DNA 2: TGGTGGCTACGACGGGATT
B14: UUCCUCA (DNA:RNA)
RNA: B1 RNA with A26U, U27C, U28C, C31A
DNA 1: CAATCTGAATTCCGGTCTCCC
DNA 2: TGGTGGCTACGACGGGATT
B15: CAAUCGA (DNA:RNA)
RNA: B2 RNA with G25C, U26A, G27A, G28U, G29C
DNA 1: CAATCTGAATTCCGGTCTCCC
DNA 2: TGGTGGCTACGACGGGATT
B16: AGUGCGC (DNA:RNA)
RNA: B2 RNA with G25A, U26G, G27U, G29C, A31C
DNA 1: CAATCTGAATTCCGGTCTCCC
DNA 2: TGGTGGCTACGACGGGATT
B17: UGGACGU (DNA:RNA)
RNA: B2 RNA with G25U, U26G, G28A, G29C, A31U
DNA 1: CAATCTGAATTCCGGTCTCCC
DNA 2: TGGTGGCTACGACGGGATT
B18: UUGCCUC (DNA:RNA)
RNA: B2 RNA with G25U, G28C, G29C, G30U, A31C
DNA 1: CAATCTGAATTCCGGTCTCCC
DNA 2: TGGTGGCTACGACGGGATT
B19: UAGUUUA (DNA:RNA)
RNA: B1 RNA with U27G, C30U, C31A
DNA 1: CAATCTGAATTCCGGTCTCCC
DNA 2: TGGTGGCTACGACGGGATT
B20: GGCUGGC (DNA:RNA)
RNA: B2 RNA with U26G, G27C, G28U, A31C
DNA 1: CAATCTGAATTCCGGTCTCCC
DNA 2: TGGTGGCTACGACGGGATT

Positions count from the first letter of the chain named. The list shows a part of the results.

For this test, the target named is T1, RBFOX1 RRM. In words: EMSA; HiTS-Eq, 1 nM pool, 10 min; buffer printed only for the single-RNA assays: 10 mM Tris pH 7.5, 150 mM NaCl, 3.4 mM EDTA, 0.001% NP-40, 30 C. Particulars: tags: His6 N-terminal (pET28a); label: 5' 32P. An outline of the steps: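 Relative association constants, normalised to the cognate motif, were derived by comparing read counts of each RNA species with those of the control reaction. The RNA sequenced was the free fraction, separated by 8% native PAGE after a 10 min equilibration in 50 µL of 1 nM 5′-radiolabelled RNA (7 randomized nucleotides) with increasing concentrations of purified wild-type or mutant RbFox RRM.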
Background: A gel shift assay detects complexes by their altered migration in electrophoresis.
Regarding B1, the binding signal is 0.00467 KA relative to UGCAUGU. As for B2, the figure is 0.0134 KA relative to UGCAUGU. As for B3, the figure is 0.00125 KA relative to UGCAUGU; as for B4, 0.00135 KA relative to UGCAUGU. As for B5, the figure is 0.00291 KA relative to UGCAUGU; as for B6, 0.0127 KA relative to UGCAUGU; as for B7, 0.0272 KA relative to UGCAUGU.

As to B8, the binding signal was 0.0178 KA relative to UGCAUGU.

Consider B9, for which the binding signal was 0.000637 KA relative to UGCAUGU. As for B10, the figure is 0.0171 KA relative to UGCAUGU; as for B11, 0.00621 KA relative to UGCAUGU; as for B12, 0.00335 KA relative to UGCAUGU. As for B13, the figure is 0.0248 KA relative to UGCAUGU; as for B14, 0.00418 KA relative to UGCAUGU; as for B15, 0.00345 KA relative to UGCAUGU. As for B16, the figure is 0.0166 KA relative to UGCAUGU; as for B17, 0.0265 KA relative to UGCAUGU; as for B18, 0.017 KA relative to UGCAUGU. B19: the binding signal was 0.0102 KA relative to UGCAUGU. Consider B20, for which the binding signal is 0.0165 KA relative to UGCAUGU.

Values taken from article PMC9911399, “Two distinct binding modes provide the RNA-binding protein RbFox with extraordinary sequence specificity”.
